Source: the supplement of paper PMC8728848
The other results are listed elsewhere or left out.

Columns and labels:
Test in all cases: glycan array binding signal (z-score within array); higher = stronger binding
Details in all cases: glycan notation: IUPAC condensed, linker removed
Fuc(a1-2)Gal = biological target: Fuc(a1-2)Gal
Method in brief: (§1)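 From the Consortium for Functional Glycomics database, 3228 arrays were curated, keeping only those whose protein sequence was available. Binding is given as a within-array Z-score averaged across arrays sharing a protein sequence and across linkers. Negative Z-scores can be read as non-binding.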

Fuc(a1-2)Gal(b1-3)GalNAc = biological target: Fuc(a1-2)Gal(b1-3)GalNAc
Method in brief: as §1

[1] = biological target: Fuc(a1-2)Gal(b1-3)GalNAc(b1-3)Gal
Method in brief: as §1

[2] = biological target: Fuc(a1-2)Gal(b1-3)GalNAc(b1-3)Gal(a1-4)Gal(b1-4)Glc
Method in brief: as §1

[3] = biological target: Fuc(a1-2)Gal(b1-3)GalNAc(b1-4)[Neu5Ac(a2-3)]Gal(b1-4)Glc
Method in brief: as §1

Fuc(a1-2)Gal(b1-3)GlcNAc = biological target: Fuc(a1-2)Gal(b1-3)GlcNAc
Method in brief: as §1

[4] = biological target: Fuc(a1-2)Gal(b1-3)GlcNAc(b1-3)Gal(b1-4)Glc
Method in brief: as §1

[5] = biological target: Fuc(a1-2)Gal(b1-3)[Fuc(a1-4)]GlcNAc
Method in brief: as §1

Fuc(a1-2)Gal(b1-4)Glc = biological target: Fuc(a1-2)Gal(b1-4)Glc
Method in brief: as §1

Fuc(a1-2)Gal(b1-4)GlcNAc = biological target: Fuc(a1-2)Gal(b1-4)GlcNAc
Method in brief: as §1

[6] = biological target: Fuc(a1-2)Gal(b1-4)GlcNAc(b1-3)Gal(b1-4)GlcNAc
Method in brief: as §1

[7] = biological target: Fuc(a1-2)Gal(b1-4)GlcNAc(b1-3)Gal(b1-4)GlcNAc(b1-3)Gal(b1-4)GlcNAc
Method in brief: as §1

[8] = biological target: Fuc(a1-2)Gal(b1-4)[Fuc(a1-3)]GlcNAc
Method in brief: as §1

[9] = biological target: Fuc(a1-2)Gal(b1-4)[Fuc(a1-3)]GlcNAc(b1-3)Gal(b1-4)[Fuc(a1-3)]GlcNAc
Method in brief: as §1

[10] = biological target: Fuc(a1-2)Gal(b1-4)[Fuc(a1-3)]GlcNAc(b1-3)Gal(b1-4)[Fuc(a1-3)]GlcNAc(b1-3)Gal(b1-4)[Fuc(a1-3)]GlcNAc
Method in brief: as §1

Fuc(a1-2)GlcNAc = biological target: Fuc(a1-2)GlcNAc
Method in brief: as §1

Fuc(a1-2)[Gal(a1-3)]Gal = biological target: Fuc(a1-2)[Gal(a1-3)]Gal
Method in brief: as §1

[11] = biological target: Fuc(a1-2)[Gal(a1-3)]Gal(b1-3)GlcNAc
Method in brief: as §1

[12] = biological target: Fuc(a1-2)[Gal(a1-3)]Gal(b1-4)Glc
Method in brief: as §1

[13] = biological target: Fuc(a1-2)[Gal(a1-3)]Gal(b1-4)GlcNAc
Method in brief: as §1

[14] = biological target: Fuc(a1-2)[Gal(a1-3)]Gal(b1-4)[Fuc(a1-3)]GlcNAc
Method in brief: as §1

[15] = biological target: Fuc(a1-2)[Gal(a1-4)]Gal(b1-4)GlcNAc
Method in brief: as §1

[16] = biological target: Fuc(a1-2)[GalNAc(a1-3)]Gal
Method in brief: as §1

[17] = biological target: Fuc(a1-2)[GalNAc(a1-3)]Gal(b1-3)GlcNAc
Method in brief: as §1

[18] = biological target: Fuc(a1-2)[GalNAc(a1-3)]Gal(b1-4)Glc
Method in brief: as §1

[19] = biological target: Fuc(a1-2)[GalNAc(a1-3)]Gal(b1-4)GlcNAc
Method in brief: as §1

[20] = biological target: Fuc(a1-2)[GalNAc(a1-3)]Gal(b1-4)[Fuc(a1-3)]GlcNAc
Method in brief: as §1

[21] = biological target: Fuc(a1-2)[GalNAc(a1-4)]Gal(b1-4)GlcNAc
Method in brief: as §1

[22] = biological target: Fuc(a1-2)[GalNAc(b1-3)]Gal
Method in brief: as §1

Fuc(a1-3)GlcNAc = biological target: Fuc(a1-3)GlcNAc
Method in brief: as §1

[23] = biological target: Fuc(a1-3)[Gal(b1-4)]GlcNAc
Method in brief: as §1

[24] = biological target: Fuc(a1-3)[Gal(b1-4)]GlcNAc(b1-4)Gal(b1-4)[Fuc(a1-3)]GlcNAc
Method in brief: as §1

[25] = biological target: Fuc(a1-3)[Gal(b1-4)]GlcNAc(b1-4)Gal(b1-4)[Fuc(a1-3)]GlcNAc(b1-4)Gal(b1-4)[Fuc(a1-3)]GlcNAc
Method in brief: as §1

[26] = biological target: Fuc(a1-3)[Gal3S(b1-4)]GlcNAc
Method in brief: as §1

[27] = biological target: Fuc(a1-3)[GalNAc(b1-4)]GlcNAc
Method in brief: as §1

Fuc(a1-4)GlcNAc = biological target: Fuc(a1-4)GlcNAc
Method in brief: as §1

Fuc(b1-3)GlcNAc = biological target: Fuc(b1-3)GlcNAc
Method in brief: as §1

B1: LKPARMA (Neurospora crassa) (protein)
chain: MSFHVTAEDARRIEVRDNRTILFARLRREDGEWNDASYELDQIIGNNDGHFQWGGGQNFTETAEDIRFHPKEGAAEQPILRARLRDCNGEFHDRDVNLTEIVENVNGEFQAKF
glycan array binding signal (z-score) (Fuc(a1-2)Gal): -0.25
glycan array binding signal (z-score) (Fuc(a1-2)Gal(b1-3)GalNAc): -0.249
glycan array binding signal (z-score) [1]: -0.252
glycan array binding signal (z-score) [2]: -0.175
glycan array binding signal (z-score) [3]: -0.18
glycan array binding signal (z-score) (Fuc(a1-2)Gal(b1-3)GlcNAc): -0.25
glycan array binding signal (z-score) [4]: 4.48
glycan array binding signal (z-score) [5]: -0.252
glycan array binding signal (z-score) (Fuc(a1-2)Gal(b1-4)Glc): -0.249
glycan array binding signal (z-score) (Fuc(a1-2)Gal(b1-4)GlcNAc): -0.249
glycan array binding signal (z-score) [6]: -0.249
glycan array binding signal (z-score) [7]: -0.205
glycan array binding signal (z-score) [8]: -0.07
glycan array binding signal (z-score) [9]: -0.238
glycan array binding signal (z-score) [10]: -0.14
glycan array binding signal (z-score) (Fuc(a1-2)GlcNAc): -0.249
glycan array binding signal (z-score) (Fuc(a1-2)[Gal(a1-3)]Gal): -0.247
glycan array binding signal (z-score) [11]: -0.249
glycan array binding signal (z-score) [12]: -0.251
glycan array binding signal (z-score) [13]: -0.252
glycan array binding signal (z-score) [14]: -0.06
glycan array binding signal (z-score) [15]: -0.239
glycan array binding signal (z-score) [16]: -0.247
glycan array binding signal (z-score) [17]: -0.251
glycan array binding signal (z-score) [18]: -0.246
glycan array binding signal (z-score) [19]: -0.252
glycan array binding signal (z-score) [20]: -0.246
glycan array binding signal (z-score) [21]: -0.133
glycan array binding signal (z-score) [22]: -0.241
glycan array binding signal (z-score) (Fuc(a1-3)GlcNAc): -0.165
glycan array binding signal (z-score) [23]: -0.248
glycan array binding signal (z-score) [24]: -0.077
glycan array binding signal (z-score) [25]: -0.232
glycan array binding signal (z-score) [26]: -0.239
glycan array binding signal (z-score) [27]: -0.247
glycan array binding signal (z-score) (Fuc(a1-4)GlcNAc): -0.246
glycan array binding signal (z-score) (Fuc(b1-3)GlcNAc): -0.251
